# The supplement of paper PMC3334620
# Whole data set: some 33,000 sequences, median “E-score (-0.5 to 0.5)” near -0.012, cut for the highest 2% near 0.27. The list shows a part of the results.
# Target: T1, Vhr1 (UniProt P40522)
# T1 sequence: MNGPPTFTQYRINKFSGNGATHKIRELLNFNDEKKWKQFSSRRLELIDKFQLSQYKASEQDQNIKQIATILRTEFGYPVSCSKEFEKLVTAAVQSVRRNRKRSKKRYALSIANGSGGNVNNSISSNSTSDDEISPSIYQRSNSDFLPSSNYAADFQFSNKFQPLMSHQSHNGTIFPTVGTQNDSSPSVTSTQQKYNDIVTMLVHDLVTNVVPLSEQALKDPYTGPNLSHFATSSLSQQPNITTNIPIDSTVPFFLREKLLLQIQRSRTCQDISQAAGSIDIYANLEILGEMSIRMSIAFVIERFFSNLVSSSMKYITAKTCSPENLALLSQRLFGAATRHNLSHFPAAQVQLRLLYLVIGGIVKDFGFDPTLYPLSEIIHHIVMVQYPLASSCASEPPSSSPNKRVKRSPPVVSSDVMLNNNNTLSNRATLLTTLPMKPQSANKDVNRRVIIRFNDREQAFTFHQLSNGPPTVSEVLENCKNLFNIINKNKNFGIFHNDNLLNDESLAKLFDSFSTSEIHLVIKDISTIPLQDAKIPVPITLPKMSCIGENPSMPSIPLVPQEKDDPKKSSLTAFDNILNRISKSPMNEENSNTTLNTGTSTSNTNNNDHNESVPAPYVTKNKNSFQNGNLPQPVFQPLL
# Test: PBM E-score (8-mer binding enrichment) (E-score (-0.5 to 0.5)); higher = stronger / more preferred TF binding; most listed sequences are background and not binding sites
# Settings: protein concentration: 200 nM; construct: GST-full length
# Procedure, shortened: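 Universal all-10-mer Agilent arrays, double-stranded by primer extension on fresh or once-stripped slides, were probed with about 100-200 nM GST-tagged yeast transcription factors made by PURExpress. Fluorescent anti-GST detected bound protein, and masliner normalised the scans. E-scores from the Universal PBM Analysis Suite were given to each ungapped eight-base word pooled with its reverse complement.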
row,Sequence,PBM E-score
1,TATGTGAA,-0.0413
2,GCCTAACC,0.0418
3,CAAAGTCC,-0.182
4,TAGAGTAA,-0.082
5,AGATCAAG,0.0944
6,AAGGTTCG,-0.272
7,GTTGGCAA,-0.0225
8,GAAGTAGC,-0.125
9,AACCACAT,0.245
10,GATGGGGA,0.0051
11,GTGGCCAA,0.0173
12,GGCCTTTA,-0.298
13,ACCTGCGT,0.0255
14,CGCATACG,-0.0252
15,CCTTAAGG,-0.15
16,ATCAGTCC,-0.225
17,GGGTTGAA,-0.137
18,CGCTAGGA,-0.0889
19,CGAGTAGA,-0.0457
20,ACAAAATC,-0.0609
21,ACTTGATG,0.135
22,GGGAATCA,0.307
23,CAAAGCCG,-0.295
24,ACAAAAGT,-0.0668
25,TAAAGGCA,-0.226

row,Sequence,PBM E-score
1,AAGGGACG,-0.207
2,AGGGGCCC,-0.126
3,GCACAAGC,0.0452
4,CTAATTAG,0.00806
5,ATTCAGAA,0.0691
6,AGAGCTAC,-0.161
7,CGGCACTC,-0.153
8,CCGAAGGA,0.0169
9,CACGATCC,0.151
10,GACTTTCA,-0.139
11,GACAACCC,0.103
12,AGCGGATG,0.0779
13,ATACACGG,-0.0771
14,TGATAGCA,0.194
15,CTGTCCGC,-0.0104
16,AAATGATA,0.0919
17,ATGTAAAT,-0.0317
18,TCCGTTAA,-0.0769
19,CGGTTCCC,-0.0826
20,GGGACAAA,-0.0798
21,CTCCAGAC,0.0448
22,TAGGTTAA,0.0291
23,CAACCGCC,-0.102
24,CTTATGTC,-0.0934
25,CTATAGCC,-0.207

row,Sequence,PBM E-score
1,CGGTGCAC,-0.0366
2,ACTATTCA,0.0281
3,AAGCGCTT,0.0401
4,CCGTATAC,-0.0179
5,CCGAGACA,0.106
6,ATCCGGTG,0.219
7,CATGGCCC,0.0652
8,GCTAAGCA,-0.0472
9,CGTTGTAA,-0.235
10,GTAAGATA,-0.00527
11,ACCCTGGC,-0.0985
12,ATATGGTA,0.248
13,AACGTAGT,-0.125
14,CACATTGA,0.108
15,GGACGAAC,-0.0308
16,CCGAATAC,0.193
17,AAATAATG,-0.0337
18,CAACTTTA,0.00592
19,GAAACGGC,0.0133
20,CCAAGCAC,0.112
21,GCCCGAGA,0.147
22,GATCACAA,0.0104
23,ATATACAA,0.196
24,TATCAAAA,-0.092
25,ACTACATC,0.239

row,Sequence,PBM E-score
1,CTCGTCAC,0.164
2,CCTCTTGA,-0.0805
3,GGCCTGTA,-0.214
4,GTGGGGAA,0.0488
5,AAGGCCAT,-0.0754
6,CTGCGCAC,0.0623
7,GTGTGTAA,0.194
8,ACGATCGT,0.131
9,AGAACCAC,0.0507
10,CTCAATTC,-0.0904
11,CTCACGAG,-0.0986
12,AGAGGTTC,-0.0731
13,ATCATGCA,0.192
14,GGTGTTAA,0.00329
15,GCCGGTCA,-0.086
16,GCGAAACA,0.0062
17,ACCATTGC,-0.0447
18,CGAGTTAC,0.149
19,CCAGATGA,0.0965
20,TAGGTCCA,-0.167
21,ATTATCAC,0.117
22,TATCTTAA,-0.0444
23,AATACGTA,0.129
24,ATAAGGAC,-0.0918
25,CAACGGTA,-0.0273

row,Sequence,PBM E-score
1,ACACGTGC,0.0294
2,ACGGGAGC,-0.114
3,CACAGCAG,0.267
4,CATGAACG,0.0516
5,AGTCTCAC,0.0608
6,GGGGGCGA,-0.201
7,CTGCGTAC,-0.0202
8,CCCAAGCC,-0.0244
9,AATCGATT,-0.0451
10,CAGCCACA,0.147
11,CTGGCACC,-0.127
12,CTAACCTC,-0.00233
13,AGGCCCAT,-0.199
14,GAGGCCCC,-0.341
15,AAAGGAAC,-0.15
16,GCGCCCAA,0.00047
17,TCTATAGA,-0.00193
18,CCGAGAGC,-0.0932
19,GCATGGCA,0.0379
20,CACCGCAC,0.105
21,GCGAAACC,-0.0227
22,ACGGGTAA,0.00924
23,CAGCTTGG,0.0962
24,ACCGCGTC,-0.0961
25,TATCGTAA,0.11

row,Sequence,PBM E-score
1,AAAAGCAG,-0.101
2,GGTGATAC,0.0146
3,ATTAGCAA,0.124
4,AAAGGTTA,-0.357
5,ACCGCCGC,0.21
6,ATGAATGA,0.255
7,GGAAAGCC,-0.0802
8,CCCATGAG,0.227
9,GTCCCTTA,-0.145
10,ATTGGCCA,-0.036
11,TGGTGCAA,-0.259
12,GGAGTATA,0.18
13,GACCTCCA,-0.0067
14,TCCGGCGA,-0.00689
15,CCGGACAA,0.08
16,AACGCGGC,-0.181
17,CGGTCTTC,-0.0512
18,GTGATCGA,0.166
19,GTACGCCA,-0.108
20,CTGACTAC,0.361
21,ACTAAACG,-0.0382
22,GAGAGCTA,-0.158
23,AACGACGA,0.083
24,GAAGATGA,-0.15
25,ACCGTACA,-0.157

row,Sequence,PBM E-score
1,AAACTATC,-0.0315
2,ACATCATC,0.166
3,CTGGGTGC,0.123
4,GGCCAATA,-0.134
5,ACCGGCGA,0.203
6,CTCTATAA,-0.207
7,ATAAGCAC,0.00956
8,CATATAGG,0.0494
9,TACTGACA,0.147
10,ACTGTGAT,-0.0183
11,TAGCGGCA,-0.165
12,GGGAGGAA,0.0727
13,AAACCAGC,-0.0724
14,GAAGTGGA,0.0071
15,CGATTCCG,0.0986
16,CTCGTAGA,-0.319
17,AGCTTACA,-0.0429
18,TTATAGAA,-0.144
19,CGCCACAG,0.135
20,AGGCCCAA,-0.129
21,CCGAAATA,0.0993
22,CCTGTTTC,0.0392
